Laboratory results as given in PubChem BioAssay (NCATS).
Values joined by “and” are separate entries in the source; they are usually repeats but may differ in a detail not shown here. Equal values may be shown once. This list was built around the results that the source calls inconclusive (neither active nor inactive); the mix of calls is not that of the screen. Potencies of inconclusive entries are doubtful fits and often do not repeat. Active and inactive are the calls of the source. Calls come from the whole dose curve; as a rule, active = well fitted cell-killing curve with a large enough effect; inconclusive = small, poorly fitted or top-dose-only effect, or effect the other way; inactive = no such curve, though single readings can be large or run the other way.

Experiments:
[1] = Viability qHTS for spleen associated tyrosine kinase inhibitor (SYKi) naive MV4-11 cells (AID 1963823); settings: MV4-11 AML viability, CellTiter-Glo luminescence, 72 h; series mostly up to 45 µM; note: nearly all actives have a fitted effect of over 40% in size
Procedure, shortened: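 CellTiter-Glo luminescence, 10 min room-temperature incubation, gave viability. Cells: naive MV4-11 (500/well), treated 72 hr at 37 C, 5% CO2.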

[2] = Viability qHTS for spleen associated tyrosine kinase inhibitor (SYKi) drug resistant MV4-11 cells (AID 1963824); settings: SYKi-resistant MV4-11 viability, CellTiter-Glo, 72 h; series mostly up to 45 µM; note: nearly all actives have a fitted effect of over 35% in size
Procedure, shortened: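 CellTiter-Glo luminescence, read 10 min after reagent addition, reports viability after a 72 hr compound exposure. Cells are an MV4-11 line made resistant to SYK inhibition, seeded at 500 per well onto compound-containing plates.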
Potency is the fitted concentration of half-maximal effect; tags give direction and shape of the fitted curve.

In the case of CO[C@]12CC[C@@]3(C[C@@H]1[C@](C)(O)C(C)(C)C)[C@@H]1Cc4ccc(O)c5c4[C@@]3(CCN1CC1CC1)[C@H]2O5, the Potency [1] was active: 21.5 µM and the Potency [2] was inconclusive: 19.1 µM [cytotoxic, partial curve, poor fit].
For OCc1nnc2n1-c1ccc(Cl)cc1C(c1ccccc1Cl)=NC2, the Potency [1] was inconclusive: 29.1 µM [cytotoxic, single point] and the Potency [2] was inconclusive: 23.1 µM [cytotoxic, single point].
In the case of c1ccc([C@@H]2C[C@H]2NC2CCNCC2)cc1, the Potency [1] was “inactive” and the Potency [2] was inconclusive: 6.51 µM [rising, single point].
In the case of CCOC(=O)C1(c2ccccc2)CCN(CCc2ccc(N)cc2)CC1, the Potency [1] was inconclusive: 11.9 µM [cytotoxic, partial curve] and the Potency [2] was inconclusive: 23.7 µM [cytotoxic, single point].
With Oc1ccccc1-c1ccccc1 the Potency [1] was inconclusive: 0.0188 µM [cytotoxic, full curve] and the Potency [2] was inconclusive: 0.075 µM [cytotoxic, full curve].
In the case of C[C@H]1[C@H](O)[C@@H](C)/C=C/C=C/CC/C=C/C=C/C=C/C=C/[C@H](O[C@@H]2O[C@H](C)[C@@H](O)[C@H](N)[C@@H]2O)C[C@@H]2O[C@](O)(C[C@@H](O)[C@H](O)CC[C@@H](O)C[C@@H](O)C[C@@H](O)CC(=O)O[C@H]1C)C[C@H](O)[C@H]2C(=O)O, the Potency [1] was inconclusive: 13.2 µM [cytotoxic, partial curve] and the Potency [2] was inconclusive: 20.9 µM [cytotoxic, partial curve].
With Cc1sc2c(c1C)C(c1ccc(Cl)cc1)=N[C@@H](CC(=O)Nc1ccc(O)cc1)c1nnc(C)n1-2 the Potency [1] was inconclusive: 0.0491 µM [cytotoxic, full curve] and the Potency [2] was inconclusive: 0.0778 µM [cytotoxic, full curve].
With CCCN1CCC[C@@H]2Cc3nc(N)ncc3C[C@H]21 the Potency [1] was inconclusive: 33.5 µM [cytotoxic, single point] and the Potency [2] was “inactive”.
With c1cc2c(cc1C1OC[C@@H]3C(c4ccc5c(c4)OCO5)OC[C@H]13)OCO2 (stereo partly drawn) the Potency [1] was inconclusive: 23.1 µM [cytotoxic, single point] and the Potency [2] was inconclusive: 23.1 µM [cytotoxic, partial curve].
In the case of OC(CNc1ccccc1)Cn1c2ccc(Br)cc2c2cc(Br)ccc21 (stereo not drawn), the Potency [1] was inconclusive: 25.9 µM [cytotoxic, single point] and the Potency [2] was inconclusive: 18.4 µM [cytotoxic, single point].
For CN(C)C(=O)Oc1cc(OC(=O)N(C)C)cc(C(O)CNC(C)(C)C)c1 (stereo not drawn), the Potency [1] was inconclusive: 0.0009 µM and the Potency [2] was inconclusive: 0.0019 µM [rising, full curve].
With Clc1ccc(OCC2=NCCN2)cc1Cl the Potency [1] was inconclusive: 20.6 µM [cytotoxic, partial curve] and the Potency [2] was inconclusive: 16.4 µM [cytotoxic, partial curve, poor fit].
With N#CC(O[C@@H]1O[C@H](CO[C@@H]2O[C@H](CO)[C@@H](O)[C@H](O)[C@H]2O)[C@@H](O)[C@H](O)[C@H]1O)c1ccccc1 (stereo partly drawn) the Potency [1] was inconclusive: 0.0013 µM [rising, full curve] and the Potency [2] was inconclusive: 0.0019 µM [rising, full curve, poor fit].
With Cc1ccc2c(c1)C1CN(C)CCC1N2 (stereo not drawn) the Potency [1] was “inactive” and the Potency [2] was “inactive”.
For CC[C@H](O)[C@@H](C)[C@H]1O[C@@H]1C[C@H](C)/C=C/C=C(\C)[C@H]1OC(=O)C[C@H](O)CC[C@@](C)(O)[C@@H](OC(C)=O)/C=C/[C@@H]1C, the Potency [1] was inconclusive: 0.0092 µM [cytotoxic, full curve] and the Potency [2] was inconclusive: 0.0092 µM [cytotoxic, full curve].
With CN1C(=O)N(c2ccc(C#N)c(C(F)(F)F)c2)C(=O)[C@@]1(CO)c1ccccc1 the Potency [1] was inconclusive: 16.4 µM [cytotoxic, single point] and the Potency [2] was inconclusive: 16.4 µM [cytotoxic, single point].
For Cc1ccc(Cn2nc(C(=O)N[C@@H]3C(C)(C)[C@@H]4CC[C@@]3(C)C4)cc2-c2ccc(Cl)c(C)c2)cc1, the Potency [1] was inconclusive: 20.6 µM [cytotoxic, single point] and the Potency [2] was inconclusive: 18.4 µM [cytotoxic, partial curve].
For CCC(C)C1NC(=O)C2CCCN2C(=O)C(CC(C)C(=O)O)OC(=O)CCNC(=O)C(C)N(C)C(=O)C(C(C)C)N(C)C1=O (stereo not drawn), the Potency [1] was inconclusive: 0.153 µM [cytotoxic, full curve, poor fit] and the Potency [2] was inconclusive: 2.43 µM [cytotoxic, partial curve, poor fit].
In the case of O=C(Nc1ccc(Br)cc1)c1cc(Br)cc(Br)c1O, the Potency [1] was inconclusive: 33.5 µM [cytotoxic, single point] and the Potency [2] was inconclusive: 29.9 µM [cytotoxic, single point].
For Cc1ccccc1CN1CCC(N2CCC(n3c(=O)[nH]c4ccccc43)CC2)CC1, the Potency [1] was inconclusive: 6.51 µM [cytotoxic, partial curve] and the Potency [2] was inconclusive: 7.31 µM [cytotoxic, partial curve].
In the case of C[C@]12CC[C@H]3[C@@H](CCC4=CC(=O)CC[C@@]43C)[C@@H]1CC[C@@H]2C(=O)O, the Potency [1] was inconclusive: 0.0841 µM [rising, full curve, poor fit] and the Potency [2] was “inactive”.
For CC1CCCC(=O)CCC/C=C/c2cc(O)cc(O)c2C(=O)O1 (stereo not drawn), the Potency [1] was inconclusive: 8.05 µM [cytotoxic, partial curve] and the Potency [2] was inconclusive: 12.8 µM [cytotoxic, partial curve].
In the case of COc1ccsc1CNCC[C@@]1(c2ccccn2)CCOC2(CCCC2)C1, the Potency [1] was “inactive” and the Potency [2] was “inactive”.
With CC1=C2C(=O)C3[C@@H](CC=C4C[C@@H](O)CC[C@@]43C)[C@@H]2CC[C@]12O[C@@H]1C[C@H](C)CN[C@H]1[C@H]2C (stereo partly drawn) the Potency [1] was inconclusive: 7.09 µM [cytotoxic, single point] and the Potency [2] was “inactive”.
For COc1cccc([C@@]2(O)CCCC[C@@H]2CN(C)C)c1, the Potency [1] was inconclusive: 0.944 µM [cytotoxic, partial curve, poor fit] and the Potency [2] was “inactive”.
For O=C(N1CCOCC1)N1CCN(c2ccc(Cl)cc2)CC1, the Potency [1] was inconclusive: 13 µM [cytotoxic, partial curve, poor fit] and the Potency [2] was inconclusive: 16.4 µM [cytotoxic, partial curve].
With CC(O)(c1ccccc1)C(Cc1ccc(Cl)cc1)n1cncn1 (stereo not drawn) the Potency [1] was inconclusive: 18.4 µM [cytotoxic, partial curve] and the Potency [2] was inconclusive: 18.4 µM [cytotoxic, partial curve].
In the case of CN1C[C@@H](NS(=O)(=O)N(C)C)C[C@@H]2c3cccc4c3c(cn4C)C[C@H]21, the Potency [1] was inconclusive: 15 µM [cytotoxic, single point] and the Potency [2] was inconclusive: 23.7 µM [cytotoxic, single point].
In the case of C/C(O)=C(\C#N)C(=O)Nc1cc(Br)ccc1Br, the Potency [1] was inconclusive: 18.4 µM [cytotoxic, partial curve] and inconclusive: 14.8 µM [cytotoxic, partial curve] and the Potency [2] was inconclusive: 20.6 µM [cytotoxic, partial curve] and inconclusive: 16.6 µM [cytotoxic, partial curve].
In the case of C=C(C)[C@@]12O[C@@H]1[C@@]1(C)C(=CC2=O)CC[C@@H](OC(C)=O)[C@@H]1C, the Potency [1] was active: 2.31 µM and the Potency [2] was active: 2.31 µM.
For CCOCCOC(C)=O, the Potency [1] was inconclusive: 0.344 µM [rising, full curve, poor fit] and the Potency [2] was inconclusive: 0.0086 µM [rising, full curve, poor fit].
With CC1=CC2OC3[C@H](O)C[C@@](C)([C@]34CO4)[C@@]2(CO)[C@H](O)C1=O (stereo partly drawn) the Potency [1] was inconclusive: 1.03 µM [cytotoxic, full curve] and the Potency [2] was inconclusive: 0.651 µM [cytotoxic, full curve].
In the case of O=C(N1CCCCC1Cc1ccccc1)n1cc(-c2ccc(-c3ccccc3)cc2)nn1 (stereo not drawn), the Potency [1] was inconclusive: 18.4 µM [cytotoxic, partial curve] and the Potency [2] was inconclusive: 23.1 µM [cytotoxic, single point].
For CC1COC2(c3ccccc3Cl)c3cc(Cl)ccc3NC(=O)CN12 (stereo not drawn), the Potency [1] was inconclusive: 21.1 µM [cytotoxic, single point] and the Potency [2] was inconclusive: 11.9 µM [cytotoxic, partial curve].
